Data: patent US20250243260A1 (ALPINE IMMUNE SCIENCES, published 2025)
Residue numbers refer to the chain shown, from its start. Numbers in names are those of the source. Values belong to the binder of their own block, whether it stands above or below them.

Tests used:
human PD-L1 = biological target: T1, human PD-L1 (human, UniProt Q9NZQ7); experiment: flow cytometry, SCC152/PD-L1 cells
T1 construct: whole, on cells; also called SCC152/PD-L1 cells
Description: Binding affinity to CD28 was determined using primary human T cells which endogenously express CD28. Binding to PD-L1 was determined using SCC152 cells transduced with human PD-L1. Binding to CTLA-4 was measured using Chinese hamster ovary (CHO) cells stably transduced to express human CTLA-4.
For staining and analysis by flow cytometry, 75,000 human T cells, SCC152/PD-L1 cells, or CHO/CTLA-4 cells were plated in 96-well round-bottom plates. Cells were spun down and resuspended in staining buffer (PBS (phosphate buffered saline), 1% BSA (bovine serum albumin), 1 mM EDTA, and 0.1% sodium azide) for 20 minutes to block non-specific binding. Afterwards, cells were centrifuged, stain buffer aspirated, and then resuspended in 50 μL of a 1:5 serial dilution of each CD80-Fc candidate variant starting at 100 nM ending at 0.8 nM. Primary staining was performed on ice for 60 minutes, before washing cells in […] staining buffer three times. PE-conjugated anti-human Fc (Jackson ImmunoResearch, USA) was diluted 1:250 in 50 μL staining buffer and added to cells and incubated another 30 minutes at 4° C. Cells were washed two times in 150 μL stain buffer and then fixed in 2% formaldehyde/PBS for 5 minutes at room temperature. Samples were analyzed CytoFLEX LX flow cytometer (Beckman Coulter, USA). Median Fluorescence Intensity (MFI) was calculated for each cell type using the CytExpert software from Beckman Coulter.

[1] = biological target: T2, human CD28 (endogenously expressed on primary human T cells) (human, UniProt P10747 19-220); experiment: flow cytometry, primary human T cells
T2 construct: whole, on cells

Chain of human PD-L1 (Q9NZQ7 19-290): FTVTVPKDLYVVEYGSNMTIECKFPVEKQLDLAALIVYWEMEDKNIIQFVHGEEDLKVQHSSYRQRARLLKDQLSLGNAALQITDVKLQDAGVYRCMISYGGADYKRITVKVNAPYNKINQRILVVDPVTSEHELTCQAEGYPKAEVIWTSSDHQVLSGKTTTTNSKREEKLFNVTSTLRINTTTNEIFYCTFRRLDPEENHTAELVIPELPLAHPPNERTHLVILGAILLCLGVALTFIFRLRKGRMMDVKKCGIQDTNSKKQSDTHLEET

- MFI (anti-human Fc) at 0.8 nM [1]: 192 MFI
- MFI (anti-human Fc) at 4 nM [1]: 237 MFI
- MFI (anti-human Fc) at 20 nM [1]: 330 MFI
- MFI (anti-human Fc) at 100 nM [1]: 546 MFI
- fold change of MFI vs WT CD80 at 20 nM [1]: 1.8 fold
B2: CD80_235-Fc, consensus variant CD80 IgV-Fc V11Y/M47L/A71G (Fc fusion)
chain: VIHVTKEVKEYATLSCGHNVSVEELAQTRIYWQKEKKMVLTMMSGDLNIWPEYKNRTIFDITNNLSIVILGLRPSDEGTYECVVLKYEKDAFKREHLAEVTLSVKADGSGGGGS[omitted - human IgG4 Fc with S228P (EU numbers)]
notes: variant IgV - GSGGGGS - human IgG4 Fc (S228P)

- Anti-Human Fc (MFI) at 0.8 nM (human PD-L1): 1320 MFI
- Anti-Human Fc (MFI) at 4 nM (human PD-L1): 3260 MFI
- Anti-Human Fc (MFI) at 20 nM (human PD-L1): 7900 MFI
- Anti-Human Fc (MFI) at 100 nM (human PD-L1): 10800 MFI
- fold change vs WT CD80 @20 nM (human PD-L1): 11.6 fold
B3: CD80_183-Fc (Fc fusion)
chain: B2 chain with T28Y, Y87R
notes: also called V11Y, T28Y, M47L, A71G, Y87R

- MFI (anti-human Fc) at 0.8 nM [1]: 247 MFI
- MFI (anti-human Fc) at 4 nM [1]: 376 MFI
- MFI (anti-human Fc) at 20 nM [1]: 680 MFI
- MFI (anti-human Fc) at 100 nM [1]: 1250 MFI
- fold change of MFI vs WT CD80 at 20 nM [1]: 3.8 fold
B6: CD80_236-Fc, consensus variant CD80 IgV-Fc V11Y/T28Y/M47L/A71G (Fc fusion)
chain: B2 chain with T28Y
notes: as for B2

- MFI (anti-human Fc) at 0.8 nM [1]: 261 MFI
- MFI (anti-human Fc) at 4 nM [1]: 453 MFI
- MFI (anti-human Fc) at 20 nM [1]: 812 MFI
- MFI (anti-human Fc) at 100 nM [1]: 1160 MFI
- fold change of MFI vs WT CD80 at 20 nM [1]: 4.5 fold
B8: CD80_234-Fc, consensus variant CD80 IgV-Fc V11Y/T28Y/M47L/V68L (Fc fusion)
chain: B2 chain with T28Y, V68L, G71A
notes: as for B2

- MFI (anti-human Fc) at 0.8 nM [1]: 208 MFI
- MFI (anti-human Fc) at 4 nM [1]: 290 MFI
- MFI (anti-human Fc) at 20 nM [1]: 547 MFI
- MFI (anti-human Fc) at 100 nM [1]: 1150 MFI
- fold change of MFI vs WT CD80 at 20 nM [1]: 3 fold
B11: CD80_238-Fc, consensus variant CD80 IgV-Fc V11Y/D46E/M47V/V68M (Fc fusion)
chain: B2 chain with D46E, L47V, V68M, G71A
notes: as for B2

- MFI (anti-human Fc) at 0.8 nM [1]: 525 MFI
- MFI (anti-human Fc) at 4 nM [1]: 1420 MFI
- MFI (anti-human Fc) at 20 nM [1]: 2600 MFI
- MFI (anti-human Fc) at 100 nM [1]: 4190 MFI
- fold change of MFI vs WT CD80 at 20 nM [1]: 14.4 fold
B13: CD80_244-Fc, consensus variant CD80 IgV-Fc V11Y/T28Y/M47L/Y87R (Fc fusion)
chain: B2 chain with T28Y, G71A, Y87R
notes: as for B2

Continued, binder first:

B1: CD80_185-Fc (Fc fusion)
chain: B2 chain with T28Y, G71A
notes: also called V11Y, T28Y, M47L
- Anti-Human Fc (MFI) at 0.8 nM (human PD-L1): 1140 MFI
- Anti-Human Fc (MFI) at 4 nM (human PD-L1): 2160 MFI
- Anti-Human Fc (MFI) at 20 nM (human PD-L1): 4630 MFI
- Anti-Human Fc (MFI) at 100 nM (human PD-L1): 6260 MFI
- fold change vs WT CD80 @20 nM (human PD-L1): 6.8 fold

B4: CD80_173-Fc (Fc fusion)
chain: B2 chain with T28Y, G71A, L85E
notes: also called V11Y, T28Y, M47L, L85E
- Anti-Human Fc (MFI) at 0.8 nM (human PD-L1): 952 MFI
- Anti-Human Fc (MFI) at 4 nM (human PD-L1): 1660 MFI
- Anti-Human Fc (MFI) at 20 nM (human PD-L1): 3850 MFI
- Anti-Human Fc (MFI) at 100 nM (human PD-L1): 5930 MFI
- fold change vs WT CD80 @20 nM (human PD-L1): 5.6 fold

B5: CD80_182-Fc (Fc fusion)
chain: B2 chain with E10G, Y11W, E35G, Y87R
notes: also called E10G, V11W, E35G, M47L, A71G, Y87R
- Anti-Human Fc (MFI) at 0.8 nM (human PD-L1): 854 MFI
- Anti-Human Fc (MFI) at 4 nM (human PD-L1): 1220 MFI
- Anti-Human Fc (MFI) at 20 nM (human PD-L1): 2740 MFI
- Anti-Human Fc (MFI) at 100 nM (human PD-L1): 5530 MFI
- fold change vs WT CD80 @20 nM (human PD-L1): 4 fold

B7: CD80_181-Fc (Fc fusion)
chain: B2 chain with K9S, E10R
notes: also called K9S, E10R, V11Y, M47L, A71G
- Anti-Human Fc (MFI) at 0.8 nM (human PD-L1): 811 MFI
- Anti-Human Fc (MFI) at 4 nM (human PD-L1): 1090 MFI
- Anti-Human Fc (MFI) at 20 nM (human PD-L1): 2210 MFI
- Anti-Human Fc (MFI) at 100 nM (human PD-L1): 5110 MFI
- fold change vs WT CD80 @20 nM (human PD-L1): 3.2 fold

B9: CD80_177-Fc (Fc fusion)
chain: B2 chain with E10G, Y11W, V22S, T28P, L47M, E81K, Y87R
notes: also called E10G, V11W, V22S, T28P, A71G, E81K, Y87R
- Anti-Human Fc (MFI) at 0.8 nM (human PD-L1): 727 MFI
- Anti-Human Fc (MFI) at 4 nM (human PD-L1): 873 MFI
- Anti-Human Fc (MFI) at 20 nM (human PD-L1): 1220 MFI
- Anti-Human Fc (MFI) at 100 nM (human PD-L1): 2430 MFI
- fold change vs WT CD80 @20 nM (human PD-L1): 1.8 fold

B10: CD80_169-Fc (Fc fusion)
chain: B2 chain with E10G, Y11V, E35G, D46E, L47V, V68M, G71A
notes: also called E10G, E35G, D46E, M47V, V68M
- Anti-Human Fc (MFI) at 0.8 nM (human PD-L1): 960 MFI
- Anti-Human Fc (MFI) at 4 nM (human PD-L1): 1180 MFI
- Anti-Human Fc (MFI) at 20 nM (human PD-L1): 1400 MFI
- Anti-Human Fc (MFI) at 100 nM (human PD-L1): 1780 MFI
- fold change vs WT CD80 @20 nM (human PD-L1): 2.1 fold

B12: CD80_168-Fc (Fc fusion)
chain: B2 chain with K9N, E10G, Y11V, L47M, N63S, G71A, L85E
notes: also called K9N, E10G, N63S, L85E
- Anti-Human Fc (MFI) at 0.8 nM (human PD-L1): 667 MFI
- Anti-Human Fc (MFI) at 4 nM (human PD-L1): 711 MFI
- Anti-Human Fc (MFI) at 20 nM (human PD-L1): 754 MFI
- Anti-Human Fc (MFI) at 100 nM (human PD-L1): 829 MFI
- fold change vs WT CD80 @20 nM (human PD-L1): 1.1 fold
